The campaign covered roughly 220,000 compounds. About 5,700 (2.6%) were called active. This list was built around the results that the source calls inconclusive (neither active nor inactive); the mix of calls is not that of the screen. Calls follow the shape of the dose curve; as a rule, active = well fitted inhibition curve with a large enough effect; inconclusive = small, poorly fitted or top-dose-only effect; inactive = no such curve, though single readings can be large or run the other way. A potency beside an inconclusive call is a rough fit, not a confirmed value.
What follows are compounds tested against Lysine-specific demethylase 5B (Homo sapiens) (UniProt Q9UGL1) (assay: Primary screen for KDM5B Histone Demethylases FDH-coupled qHTS). Conditions: FDH-coupled NADH fluorescence (FDH is formaldehyde dehydrogenase); activity change, negative = inhibition: at 57.7 µM (top of the series) unless noted.
Method in brief: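 Measured: NADH fluorescence change, 30 min, RT. System: KDM5BΔAP 200 nM final, H3K4me3 peptide, α-KG, Fe(II), ascorbate, NAD⁺ plus FDH, pH 7.5 HEPES. Compounds: titrated, 10 min pre-incubation with enzyme.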
Also: nearly all actives have a fitted effect of over 70% in size.
For activity change, negative = inhibition in this document: 0% is about no effect.
Potency is read from the fitted curve at half-maximal effect; tags tell the direction and shape of the fitted curve.

UniProt Q9UGL1, sequence (Q9UGL1 whole entry, looked up): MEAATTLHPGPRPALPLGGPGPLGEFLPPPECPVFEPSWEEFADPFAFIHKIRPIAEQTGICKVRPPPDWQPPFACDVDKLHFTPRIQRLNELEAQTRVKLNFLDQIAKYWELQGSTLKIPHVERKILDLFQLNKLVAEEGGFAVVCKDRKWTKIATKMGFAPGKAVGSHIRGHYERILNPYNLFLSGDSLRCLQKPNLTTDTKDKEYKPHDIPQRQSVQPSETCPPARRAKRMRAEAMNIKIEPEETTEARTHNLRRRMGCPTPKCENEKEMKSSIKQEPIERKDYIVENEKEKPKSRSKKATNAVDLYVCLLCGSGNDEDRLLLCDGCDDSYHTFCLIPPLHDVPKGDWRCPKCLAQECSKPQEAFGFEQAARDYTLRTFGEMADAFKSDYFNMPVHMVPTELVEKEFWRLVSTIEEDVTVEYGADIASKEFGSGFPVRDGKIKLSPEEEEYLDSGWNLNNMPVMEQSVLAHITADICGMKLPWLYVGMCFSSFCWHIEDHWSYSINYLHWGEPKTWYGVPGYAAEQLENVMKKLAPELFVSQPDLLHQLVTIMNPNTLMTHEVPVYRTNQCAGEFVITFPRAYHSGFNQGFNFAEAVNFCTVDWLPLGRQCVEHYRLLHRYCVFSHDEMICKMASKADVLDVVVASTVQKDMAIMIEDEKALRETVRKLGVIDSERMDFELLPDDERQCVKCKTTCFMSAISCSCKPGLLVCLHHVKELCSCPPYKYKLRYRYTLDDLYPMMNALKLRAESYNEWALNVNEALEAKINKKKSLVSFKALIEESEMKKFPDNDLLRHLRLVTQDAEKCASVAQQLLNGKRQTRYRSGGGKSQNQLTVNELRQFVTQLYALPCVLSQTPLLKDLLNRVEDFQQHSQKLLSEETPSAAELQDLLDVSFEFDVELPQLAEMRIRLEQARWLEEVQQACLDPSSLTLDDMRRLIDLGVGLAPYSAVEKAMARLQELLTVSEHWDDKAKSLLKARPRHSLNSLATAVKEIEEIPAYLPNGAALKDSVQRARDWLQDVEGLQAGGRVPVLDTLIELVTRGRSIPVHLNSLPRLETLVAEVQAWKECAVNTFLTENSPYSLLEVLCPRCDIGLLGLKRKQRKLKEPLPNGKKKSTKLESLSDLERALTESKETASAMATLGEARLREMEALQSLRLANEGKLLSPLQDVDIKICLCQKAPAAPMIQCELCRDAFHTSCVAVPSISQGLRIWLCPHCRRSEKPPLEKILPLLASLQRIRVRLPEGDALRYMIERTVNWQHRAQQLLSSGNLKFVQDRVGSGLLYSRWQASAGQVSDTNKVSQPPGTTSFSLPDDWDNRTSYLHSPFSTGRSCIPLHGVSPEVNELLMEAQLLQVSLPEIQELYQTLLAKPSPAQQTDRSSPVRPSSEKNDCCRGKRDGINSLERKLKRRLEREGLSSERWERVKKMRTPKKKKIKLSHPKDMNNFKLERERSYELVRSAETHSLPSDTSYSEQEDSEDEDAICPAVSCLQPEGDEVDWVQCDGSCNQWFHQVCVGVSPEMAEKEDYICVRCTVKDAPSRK

Compound	Potency	activity change, negative = inhibition
CCOc1ccc(NC(=O)c2cnc(N3CCCCC3)c3ccccc23)cc1	inconclusive: 39.8 µM [inhibitor, single point]	
O=C(Cc1ccccc1Cl)NC1CCN(c2cc(-c3ccc(F)cc3)[nH]n2)C1 (stereo unspecified)	inconclusive: 8.91 µM [inhibitor, partial curve]	
CCn1nccc1C(=O)N1CCC2(CC1)NC(=O)N(c1ccccc1)N2	inconclusive: 20 µM [inhibitor, partial curve, poor fit]	
COc1ccc(OC)c(Nc2nc(NCC(C)C)nc3c2cnn3-c2ccccc2)c1	inconclusive: 35.5 µM [inhibitor, partial curve, poor fit]	
Nc1ccc2c(S(=O)(=O)O)cc(S(=O)(=O)O)cc2c1	inconclusive: 20 µM [inhibitor, partial curve, poor fit]	
COc1ccc(NC(=O)N2C[C@@H]3C[C@H](C2)c2ccc(NC(=O)Nc4ccccc4OC)c(=O)n2C3)cc1	inconclusive: 28.2 µM [inhibitor, partial curve, poor fit]	
CCCS(=O)(=O)N1CCN(C2CCN(CCOC)C2=O)CC1 (stereo unspecified)	inactive	
O=C1CC(c2ccc(F)c(F)c2)c2ncn(-c3ccccc3)c2N1 (stereo unspecified)	inconclusive: 35.5 µM [inhibitor, single point]	
CCc1noc(-c2cn(C3CCN(C(=O)c4cc(C)ccc4C)CC3)nn2)n1	inactive	
C#CCNC(=O)[C@@H]1Cc2cn(Cc3cc(C)on3)c3cccc(c23)[C@H](CC(C)C)N1	active: 31.6 µM	
Cc1ccc(-n2c(SCC(=O)O)nc3sc4c(c3c2=O)CCCC4)cc1	inconclusive: 25.1 µM [inhibitor, single point]	
COc1cc(OC)c(NC(=O)N2CCN(c3ccc(=O)n(-c4ccc(F)cc4)n3)CC2)cc1Cl	inactive	
Cc1ccc(N2CCN(C(=O)c3ccc4c(c3)N(C)C3CCCCN3C4=O)CC2)cc1 (stereo unspecified)	inconclusive: 28.2 µM [inhibitor, partial curve, poor fit]	
Cc1ccc(CNC(=O)Nn2cnc3ccccc32)cc1	inactive	
Cc1ccc2oc(C(=O)N(C)Cc3cnccn3)c(C)c2c1	inactive	
O=C(NC1CCCN(c2cc(-c3ccc(F)cc3)[nH]n2)C1)c1nccc2ccccc12 (stereo unspecified)	inconclusive: 10 µM [inhibitor, partial curve, poor fit]	
Cn1cc2c3c(cccc31)CN(C(=O)COc1ccc(F)cc1)CC2	inconclusive: 31.6 µM [inhibitor, single point]	
COc1cccc(CN2CCNc3cnc(OCc4cccnc4)cc3C2)c1	active: 35.5 µM	
CNC(=O)N1CCC(C2CCN(C3CCN(CCc4ccccc4)CC3)C2)CC1 (stereo unspecified)	inconclusive: 14.1 µM [inhibitor, partial curve]	
COc1cccc(NC(=O)C2CCCN(S(=O)(=O)c3ccc4[nH]c(=O)ccc4c3)C2)c1 (stereo unspecified)	inactive	
N#Cc1nc(-c2ccc(S(=O)(=O)N3CCOCC3)cc2)oc1NCc1ccc2c(c1)OCO2	inconclusive: 1.78 µM [inhibitor, partial curve, poor fit]	
COc1ccc2[nH]c3c(c2c1)CCNC31CCN(C(=O)C2CCC2)CC1	inconclusive: 25.1 µM [inhibitor, single point]	

Compound	Potency	activity change, negative = inhibition
Cn1cc(C(=O)N2CCN(c3cccc(C(F)(F)F)c3)CC2)c2c3ccccc3n(C)c2c1=O	inconclusive: 35.5 µM [inhibitor, partial curve, poor fit]	
CCCNc1c(NC(=O)Nc2ccc(CC)cc2)c(=O)oc2ccccc12	inactive	
Nc1nccnc1C(=O)NCCNC(=O)c1ccc(Cl)c(Cl)c1	inconclusive: 28.2 µM [inhibitor, partial curve, poor fit]	
COc1ccc2[nH]c3c(c2c1)CCNC31CCN(C(=O)Cc2cccnc2)CC1	inconclusive: 22.4 µM [inhibitor, single point]	
Cc1nnc(N2CCOCC2)c2c1nnn2Cc1ccccc1Cl	inactive	
CC(=O)Nc1ccc(NC(=O)c2cc3n(n2)CC(c2ccc(Br)cc2)OC3)cc1 (stereo unspecified)	inconclusive: 25.1 µM [inhibitor, single point]	
Cc1cccc(-c2cc(Nc3ccc(C)c(C)c3)nc(C)n2)c1	inconclusive: 25.1 µM [inhibitor, partial curve, poor fit]	
CC(CCC(=O)N1CCn2nc(Cc3ccccc3)cc2C1)N1CCCC1 (stereo unspecified)	inconclusive: 11.2 µM [inhibitor, partial curve]	
Cn1c(=O)c(-c2cccc(Cl)c2)c(O)c2ccccc21	inactive	
COc1cc(CNC(=O)c2nccnc2N)ccn1	inconclusive: 22.4 µM [inhibitor, partial curve, poor fit]	
Cc1ccc(C(=O)Nc2cc3c(cc2N2CCCC2)n(C)c(=O)c(=O)n3C)cc1	inconclusive: 35.5 µM [inhibitor, partial curve, poor fit]	
COc1cccc(CNCc2ccco2)c1	inconclusive: 22.4 µM [inhibitor, partial curve, poor fit]	
CN1CCN(CCCNC(=O)Cc2ccc(C(F)(F)F)cc2)CC1	inactive	
Cc1noc(C)c1C(=O)N[C@@H]1CN(c2ncccn2)C[C@H]1CN(C)C	active: 31.6 µM	
O=C(c1ccncc1)N1CCCN(Cc2cccnc2)c2ccccc21	inactive	
Cc1ccc(C(C[N+](=O)[O-])c2c(N)n(C)c(=O)n(C)c2=O)cc1 (stereo unspecified)	inconclusive: 28.2 µM [inhibitor, partial curve, poor fit]	
CNC(=O)NC(=O)CSc1nc(-c2ccco2)nc2ccccc12	inconclusive: 2.82 µM [inhibitor, full curve, poor fit]	
CCNc1ccc2oc3ccccc3c2c1	inconclusive: 25.1 µM [inhibitor, partial curve, poor fit]	
COc1ccc(CC(=O)NCC(=O)N/N=C/c2cc(Br)ccc2OC)cc1	inconclusive: 25.1 µM [inhibitor, single point]	
COc1cccc(CN2CCCCCCNC(=O)[C@@H]3CCC[C@@H]32)c1	inconclusive: 3.16 µM [inhibitor, full curve, poor fit]	
COc1ccc(CNC(=O)c2ccc3c(c2)NC(=O)CCS3)cc1OC	inconclusive: 39.8 µM [inhibitor, single point]	
COc1cccc(-n2c(SCC(=O)c3ccc(Cl)cc3)nc3c([nH]c4ccccc43)c2=O)c1		inconclusive: -36.5% [inhibitor]

Compound	Potency	activity change, negative = inhibition
COCCNc1oc(COc2ccc(-c3ccccc3)cc2)nc1C#N	inactive	
COc1ccc(C(=O)NO)cc1	inconclusive: 28.2 µM [inhibitor, partial curve, poor fit]	
COC(=O)Cn1c(=O)c2c(nc3n2CCN3c2ccc(F)cc2)n(C)c1=O		inconclusive: -32.2% [inhibitor]
COCC1CN(Cc2ccc(Cl)c(F)c2)CC12CCNCC2 (stereo unspecified)	inconclusive: 31.6 µM [inhibitor, single point]	
CSc1ccc(/C=C(/C#N)C(=O)c2c(C)[nH]c3ccccc23)cc1	inconclusive: 20 µM [inhibitor, partial curve, poor fit]	
CSc1ccc(CNC(=O)c2ccc(NC(=O)c3nsc4ccccc34)cc2)cc1	inconclusive: 39.8 µM [inhibitor, single point]	
CCn1ncc(Br)c1C(=O)Nc1ccc(C(C)C)cc1	inconclusive: 1.78 µM [inhibitor, partial curve, poor fit]	
CN(C)c1cccc(C(=O)Nc2ccc(-c3nc4ccccc4o3)cc2)c1	inconclusive: 22.4 µM [inhibitor, partial curve, poor fit]	
O=C(c1ccco1)N1CCCC(c2noc(COc3ccccc3)n2)C1 (stereo unspecified)	inactive	
Cc1nc(-c2ccc(Cl)cc2)sc1C(=O)N1CCCC(C(=O)O)C1 (stereo unspecified)	inactive	
O=C(NCc1ccccc1Cl)C1CCCN(c2ncnc3onc(-c4ccc(F)cc4)c23)C1 (stereo unspecified)	inconclusive: 35.5 µM [inhibitor, single point]	
N#Cc1cccc(CN2Cc3[nH]cnc3C[C@H]2c2nc(-c3ccccc3)no2)c1	inconclusive: 50.1 µM [inhibitor, single point]	
CCCCC1CCNC1 (stereo unspecified)	inconclusive: 39.8 µM [inhibitor, partial curve, poor fit]	
O=C(Nc1ccc(F)cc1F)C1(CCO)CCN(c2ncccn2)C1 (stereo unspecified)	active: 25.1 µM	
O=C(Nc1ccc(N2CCOCC2)c(S(=O)(=O)Nc2ccc(Cl)cc2)c1)c1cnccn1	inconclusive: 28.2 µM [inhibitor, partial curve, poor fit]	
Cc1ccc(-c2ccc(/C=N/Nc3ccc(S(N)(=O)=O)cc3)o2)c([N+](=O)[O-])c1	inconclusive: 20 µM [inhibitor, partial curve, poor fit]	
O=C(c1ccc(N2CC3CC(C2)[C@H]2CCCC(=O)N2C3)nc1)N1CCN(c2ccccc2)CC1 (stereo partly specified)	inconclusive: 25.1 µM [inhibitor, partial curve, poor fit]	
COc1ccc(-c2ncc3c(n2)OCCN(CC2CC2)C3=O)cc1	active: 35.5 µM	
CNC(=O)[C@@H]1C[C@@H](n2cc(CNC(=O)Nc3ccc(F)cc3F)nn2)CN1	inactive	
CCCc1nc2ccccc2n2c(-c3cccc(C)c3)c3c(=O)n(C)c(=O)n(C)c3c12	inconclusive: 4.47 µM [inhibitor, partial curve, poor fit]	
c1ccc2c(c1)ncn2-n1cccc1	inactive	
O=C(COc1ccccc1)N1CCNc2cnc(Nc3cccc(F)c3)nc2C1	active: 35.5 µM	

— PubChem BioAssay AID1347165 (National Center for Advancing Translational Sciences (NCATS), 2019)
